Source: PubChem BioAssay AID588453 (National Center for Advancing Translational Sciences (NCATS), 2011)
Out of some 390,000 compounds screened, about 4,000 (1%) were called active. This list was built around the results that the source calls inconclusive (neither active nor inactive); the mix of calls is not that of the screen. Calls come from the whole dose curve; as a rule, active = well fitted inhibition curve with a large enough effect; inconclusive = small, poorly fitted or top-dose-only effect; inactive = no such curve, though single readings can be large or run the other way. Potencies of inconclusive entries are doubtful fits and often do not repeat.

Each compound was assayed against Thioredoxin reductase 1, cytoplasmic (Rattus norvegicus) (UniProt O89049) (assay: qHTS Assay for Inhibitors of Mammalian Selenoprotein Thioredoxin Reductase 1 (TrxR1): qHTS). Conditions: recombinant rTrxR1, NADPH fluorescence consumption, selenite substrate; series mostly up to 114 µM.
UniProt O89049, sequence (O89049 whole entry, looked up): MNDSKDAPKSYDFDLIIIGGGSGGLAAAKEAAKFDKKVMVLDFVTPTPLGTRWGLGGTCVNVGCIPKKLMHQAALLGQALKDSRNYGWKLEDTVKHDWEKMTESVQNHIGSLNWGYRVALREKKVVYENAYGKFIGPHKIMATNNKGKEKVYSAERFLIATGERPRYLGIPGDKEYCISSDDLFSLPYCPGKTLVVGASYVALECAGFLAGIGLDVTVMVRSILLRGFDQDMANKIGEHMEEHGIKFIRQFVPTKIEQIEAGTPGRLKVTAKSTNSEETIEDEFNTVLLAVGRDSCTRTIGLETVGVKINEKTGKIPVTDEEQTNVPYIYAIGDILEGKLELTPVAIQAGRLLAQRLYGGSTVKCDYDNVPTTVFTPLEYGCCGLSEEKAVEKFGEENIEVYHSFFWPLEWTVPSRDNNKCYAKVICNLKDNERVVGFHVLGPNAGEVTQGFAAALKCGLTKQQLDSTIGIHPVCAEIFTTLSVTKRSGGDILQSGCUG
How it was run: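 Rat TrxR1 (90 nM in the dispensed reagent) was pre-reduced with 400 uM NADPH for 5 min at room temperature, then incubated with compound for 15 min. After 400 uM selenite was added, NADPH fluorescence (Ex 340/Em 450 nm) was followed for 8 min.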
Note: nearly all actives have a fitted effect of over 65% in size.
Potency is the fitted concentration of half-maximal effect; tags give direction and shape of the fitted curve.

Compound | Potency
CC(=O)N(Cc1cccnc1)c1nc2ccc(F)cc2s1 | inactive
COc1cc(CCC(=O)Nc2ccc(S(=O)(=O)N3CCOCC3)cc2)cc(OC)c1OC | inactive
COc1cc(NC(=O)CCS(=O)(=O)c2ccc3c(c2)oc(=O)n3C)cc(OC)c1OC | inconclusive: 70.8 µM [inhibitor, single point]
CN1/C(=C/C2CC(=O)N(c3ccc([N+](=O)[O-])cc3)C2=O)C(C)(C)c2ccccc21 (stereo not given) | inconclusive: 12.6 µM [inhibitor, partial curve]
CC(C)C(c1nnnn1CCc1ccccc1)N1CCN(C(=O)c2ccco2)CC1 (stereo not given) | inconclusive: 31.6 µM [inhibitor, single point]
COc1ccc(Br)cc1/C=N/NC(=O)c1ccc2nc[nH]c2c1 | inconclusive: 70.8 µM [inhibitor, partial curve]
COc1ccc(-c2cc(C(F)(F)F)n3nc(C(=O)O)c(Cl)c3n2)cc1OC | inconclusive: 56.2 µM [inhibitor, partial curve]
CC(C)CNC(=O)CN1C(=O)NC2(CCCc3ccccc32)C1=O (stereo not given) | inconclusive: 89.1 µM [inhibitor, partial curve, poor fit]
O=C(Cc1csc(Nc2nc(=S)[nH]c3ccccc23)n1)N1CCN(c2cccc(Cl)c2)CC1 | inactive
COc1ccc2[nH]c3c(=O)n(CCCCC(=O)NCCN4CCCC4)c(=S)[nH]c3c2c1 | inconclusive: 15.8 µM [inhibitor, partial curve, poor fit]
O=C(NCc1ccco1)c1csc2c1CCCCC2 | inactive
O=C(O)c1cc(S(=O)(=O)Nc2cccc(Oc3ccccc3)c2)ccc1Br | inactive
COc1ccc(CCNC(=O)CCC(=O)N2CCOc3ccc(C)cc32)cc1OC | inconclusive: 39.8 µM [inhibitor, single point]
O=C(C[n+]1cccc(Br)c1)c1ccc2c(c1)CCCC2 | inactive
O=C(/C=C/c1ccc[nH]1)c1ccccc1 | inactive
COCCCNC(=O)c1c(N)n(-c2ccc3c(c2)OCO3)c2nc3ccccc3nc12 | inactive
COc1ccc(NC(=O)C2=C(C)C(=O)OC23CCN(C(C)C)CC3)cc1Cl | inactive
NC(=O)CSc1ncnc2c1oc1ccccc12 | inconclusive: 89.1 µM [inhibitor, single point]
CNC(=O)c1cc(-c2ccc(Cl)cc2)n(-c2ccccc2)n1 | inconclusive: 31.6 µM [inhibitor, single point]
CCOc1ccc(-c2cc(C(=O)OC)nc3c2c(=O)n(C)c(=O)n3C)cc1 | inconclusive: 100 µM [inhibitor, single point]
Cc1c(Br)c([N+](=O)[O-])nn1CC(=O)N1CCN(C23CC4CC(CC(C4)C2)C3)CC1 | inactive
Cc1ccccc1NC(=O)CN1C(=O)S/C(=C\c2cccn2-c2cccc(C(=O)O)c2)C1=O | inactive
CCOC(=O)c1c(/N=C/c2cccc([N+](=O)[O-])c2O)sc2c1CCC2 | inactive

Compound | Potency
CCN(CC)S(=O)(=O)c1ccc(NC(=S)Nc2ccc(F)cc2)cc1 | inconclusive: 44.7 µM [inhibitor, partial curve]
C#CCOCCOCCOCCNc1nc(N2CCN(C(=O)[C@H](CCCN=C(N)N)n3cc(C(N)[C@@H](C)CC)nn3)CC2)nc(N2CCN(C(=O)[C@H](CC(N)=O)n3cc([C@@H](N)CC(N)=O)nn3)CC2)n1 (stereo not given in full) | inconclusive: 22.4 µM [inhibitor, single point]
COc1ccc(C(=O)Oc2c(Sc3ccccc3)c(C)nn2-c2ccccc2)cc1OC | inactive
CCCCc1nc(NCCNC(=O)c2ccco2)c(C#N)c2c1CSC(C)(C)C2 | active: 50.1 µM
O=C(CCl)N(Cc1cccc([N+](=O)[O-])c1)c1cccc(Cl)c1 | active: 7.94 µM
N#Cc1c(N)nc(SCc2ccccc2)c(C#N)c1-c1ccco1 | inconclusive: 39.8 µM [inhibitor, partial curve, poor fit]
COc1cc(C2C(C#N)=C(N)Oc3cc(O)ccc32)cc2c1OCO2 (stereo not given) | inconclusive: 35.5 µM [inhibitor, partial curve]
Cc1ccc(CNS(=O)(=O)c2ccc(C(C)(C)C)cc2)n1C | inconclusive: 28.2 µM [inhibitor, single point]
O=C(CSc1nnc(NC(=O)C2CC(=O)N(c3ccccc3)C2)s1)NCc1ccco1 (stereo not given) | inconclusive: 39.8 µM [inhibitor, partial curve]
CCCn1c(SCC(=O)Nc2nnc(CC)s2)nnc1-c1ccco1 | inconclusive: 89.1 µM [inhibitor, partial curve, poor fit]
CCOc1ccc(-c2nnc3sc(COc4ccccc4)nn23)cc1 | inactive
O=C1NN(c2ccccc2)C(=O)/C1=C/c1ccc(-c2cccc(C(=O)O)c2)o1 | inconclusive: 79.4 µM [inhibitor, single point]
CCCCCCCCCCCCCCCC(=O)OC(CC(=O)O)C[N+](C)(C)C (stereo not given) | inconclusive: 26.7 µM [inhibitor, partial curve, poor fit]
CN(C)c1ccc(C2=Cc3ccccc3C2)cc1 | inconclusive: 44.7 µM [inhibitor, partial curve, poor fit]
COc1cccc(CNc2ncc(-c3ccc(Br)cc3)n2C)c1 | inactive
Cc1nn(C)c(C(=O)NNC(=S)Nc2ccc(Cl)cc2)c1[N+](=O)[O-] | inconclusive: 0.708 µM [inhibitor, full curve, poor fit]
CCCC[C@@H]1CCCO[C@@](C(=O)NCCOC)(C(F)(F)F)C1 | inactive
CCCCCn1c(=O)c2ccccc2n2c(CCl)nnc12 | inconclusive: 25.1 µM [inhibitor, single point]
CCN1C(C(=O)c2ccccc2)=C(OC(=O)COc2ccccc2)c2ccccc2S1(=O)=O | active: 28.2 µM
COc1ccc(-c2nn(-c3ccccc3)cc2C#N)cc1 | inactive
N#CC1=C(N)SC(N)=C(C#N)C1c1ccnc2ccccc12 | active: 31.6 µM
CNc1ccc(C=C2C=CC=C2)cc1 | inconclusive: 31.6 µM [inhibitor, partial curve]
